Assay results published in PubChem BioAssay AID1346428 (National Center for Advancing Translational Sciences (NCATS), 2018).
“And” between values parts separate entries of the source, which are not always exact repeats. Equal entries are not always repeated. Among all 48,000 compounds or so, about 1,200 (2.5%) were called active. Another 2% or so got no clear call; they are omitted.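 The calls were made as follows: active = activation of at least 60% and not above a set upper limit (about 1 call in 100 departs from these limits); inconclusive = activation of 40% to 60%, or above that upper limit; inactive = activation under 40%.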 The list shows a part of the results.

target: Probable G-protein coupled receptor 32 (Homo sapiens) (UniProt O75388); experiment: qHTS for Agonists of Human Resolvin D1 Receptor DRV1; settings: CHO-K1 GPR32 beta-arrestin PathHunter luminescence, 90 min; at 76.9 µM; hits give high values; zero percent set by DMSO-only wells; also: 0% is about no effect
UniProt O75388, sequence (O75388 whole entry, looked up, the tested form may be a part): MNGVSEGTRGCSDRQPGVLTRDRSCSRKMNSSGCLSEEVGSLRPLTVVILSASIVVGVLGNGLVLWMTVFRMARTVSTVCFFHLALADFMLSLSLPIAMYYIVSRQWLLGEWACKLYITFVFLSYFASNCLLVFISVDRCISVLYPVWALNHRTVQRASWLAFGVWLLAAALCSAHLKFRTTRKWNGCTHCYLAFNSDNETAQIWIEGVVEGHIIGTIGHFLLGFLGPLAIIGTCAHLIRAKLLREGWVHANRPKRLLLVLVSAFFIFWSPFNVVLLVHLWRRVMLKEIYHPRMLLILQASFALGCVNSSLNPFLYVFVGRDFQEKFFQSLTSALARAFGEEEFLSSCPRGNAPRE
How it was run: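 Agonism was scored by beta-Gal fragment complementation (chemiluminescent read, 1 h detection at ambient temperature) reporting beta-arrestin binding to GPR32 in engineered CHO-K1 cells. Compound treatment lasted 90 min at 37 C, normalized to a DMSO basal control.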

activation, active:
O=C(NCc1ccc(Cl)cc1Cl)c1cccc(N2CCCS2(=O)=O)c1 61.7%, Cc1cc(C)c2c(N)c(C(=O)Nc3ccccc3C(F)(F)F)sc2n1 89.4%

activation, inactive:
CN1CCN(C2Cc3ccccc3Sc3ccc(Cl)cc32)CC1 (configuration not stated) 25.8% and -31.2%, Cc1ccc(C(=O)N2CCC(C(N)=O)CC2)cc1NC(=O)c1nsc2ccccc12 -5.15%, COc1ccc(C2CC(=O)N(CC(=O)Nc3cccc(C)c3C)c3ccccc3S2)cc1OC (configuration not stated) -20.2%, CCC(=O)Nc1ccc(O)cc1 -6.67%, CCOC(=O)C1CCN(C(=O)c2nn(-c3ccc(OC)cc3)c(=O)c3c2c2ccccc2n3C)CC1 4.98%, Cc1ccc(Sc2ccc(N3CCCC(C(=O)Nc4ccc(F)cc4F)C3)nn2)cc1 (configuration not stated) 35.5%, COc1ccc(N(CC(=O)NCCc2ccc(Cl)cc2)S(=O)(=O)c2c(C)nn(C)c2C)cc1 -1.19%, CC1CCN(S(=O)(=O)c2cc(C(=O)N3CCN(c4ccccc4F)CC3)n(C)c2)CC1 28.7%, Cc1ccc(CSc2nc3cccnc3n2Cc2ccc(C(=O)NCCc3cccs3)cc2)cc1 -18.1%, Cc1nn(C)c2c1c(C(F)(F)F)cc(=O)n2CC(=O)N1CCC(C)CC1 14.4%, Cc1ccc(-c2noc(-c3nnn(CC(=O)Nc4cc(Cl)ccc4C)c3N)n2)cc1 -22.6%, CCC1CN(C(=O)C2CCN(S(=O)(=O)c3c(C)noc3/C=C/c3ccccc3F)CC2)c2cc(C)ccc2O1 (configuration not stated) -14.5%, COc1ccc(NC(=O)c2oc3ccccc3c2NC(=O)Cc2cccs2)c(OC)c1 -5.38%, COc1ccc(CNC(=O)C(C)n2c(=O)cc(C)c3c(C)nn(-c4ccccc4)c32)cc1 (configuration not stated) -19.7%, CCCCn1c(SCC(=O)NCc2ccc(C)cc2)nc2c(sc3ccccc32)c1=O -12.1%, COCCN1CCN(Cc2ccc(C(=O)NC(C)C)cc2)C(=O)C1=O -12.4%, CCN1CCN(c2cc(C)c3cc(NC(=O)c4ccc(OC)c(OC)c4)ccc3n2)CC1 5.98%, CCc1cccc(NC(=O)C2CCN(S(=O)(=O)c3cccc(-c4noc(C)n4)c3)CC2)c1 -0.0237%, NS(=O)(=O)c1cc2c(cc1Cl)NC(C(Cl)Cl)NS2(=O)=O (configuration not stated) 4.1%, Cc1nc2c(c(C)nn2-c2ccccc2)c(C)c1CCC(=O)NCc1ccccc1 -0.383%, COc1ccc(C2c3cccn3CCN2S(=O)(=O)c2ccc([N+](=O)[O-])cc2)cc1 (configuration not stated) -15.9%, CC(=O)c1cccc(NC(=O)c2nc(-c3ccccc3)n(-c3ccccc3C)n2)c1 -10.5%, COc1ccc(C)cc1Nc1nc(N)c2cc(OC)c(OC)cc2n1 13.2%, CCN1CCN(Cc2c(O)ccc3cc(-c4ccc(OC)cc4)c(=O)oc23)CC1 0.636%, Cc1ccc(/C=C/c2onc(C)c2S(=O)(=O)N2CCC(C(=O)N(CCC(C)C)Cc3ccco3)CC2)cc1 -12.8%, COc1ccc(N2CCN(CCCNC(=O)c3ccc4nc(N5CCCCC5)sc4c3)CC2)cc1 2.24%, COc1ccccc1NC(=O)Cn1c(=O)n(-c2ccc(C)cc2)c(=O)c2c1cnn2C 7.48%, CCOc1ccc(NC(=O)c2oc3ccccc3c2NC(=O)c2cc3ccccc3o2)cc1 -3.94%, Cc1ccc(CNC(=O)c2ccc(CS(=O)(=O)c3ccccc3C)o2)cc1 40.5%, Cc1ccc(N2C(=O)CSC23C(=O)N(CC(=O)Nc2ccccc2F)c2ccccc23)cc1C (configuration not stated) -9.81%, CN(C)c1ccc(CNC(=O)c2ccc3nc(CCc4ccccc4)oc3c2)cc1 -16%, CCOC(=O)CSc1nc2cc3c(cc2c(=O)n1CCCCCC(=O)NCc1ccc(OC)cc1)OCO3 -20.9%, COc1ccc(-n2nc(C(=O)Nc3cccc(Cl)c3)c3c4ccccc4n(C)c3c2=O)cc1Cl 8.35%, CC(C)(C)c1ccc(-c2nnc(-c3ccccc3NC(=O)c3ccc(F)cc3F)o2)cc1 1.41%, O=C(Nc1ccc(Br)cc1)c1cccc(S(=O)(=O)N2CCc3ccccc32)c1 9.81%, CCCCCCC1CCC(C(=O)NC(C(=O)O)C(C)C)CC1 (configuration not stated) 47.5%, O=C(CSc1oc(-c2ccco2)nc1S(=O)(=O)c1ccc(Cl)cc1)Nc1ccc(F)cc1 -18.4%, CC(C)c1ccc(NC(=O)CSC2=Nc3ccccc3C3=NC(CC(=O)NC4CCCCC4)C(=O)N23)cc1 (configuration not stated) -18.7%, COc1ccc2c(Sc3ccc(Cl)cc3)c(C(=O)N3CCCCC3)[nH]c2c1 6.92%, COc1ccc(-c2nc3ccccc3n3c(-c4ccccc4)c4c(=O)n(C)c(=O)n(C)c4c23)cc1 -10%, CN[C@H](CC(=O)O)C(=O)O -2.27%, CCn1cc2nc(SCc3cccc(C(F)(F)F)c3)n(Cc3ccc(C)cc3)c(=O)c2n1 8.23%, COc1ccc(-c2cc(C(=O)Nc3cnn(Cc4ccc(F)cc4)c3)no2)cc1OC 29.4%, Cc1cc(F)ccc1NC(=O)c1c(C)oc2c1C1=NCCN1C=N2 -11.6%, CCc1ccccc1NC(=O)CSc1nc2c(c(=O)[nH]1)CN(Cc1ccccc1OC)CC2 -1.91%, COc1cc2c(cc1NC(=O)C(C)Oc1ccccc1)oc1ccccc12 (configuration not stated) -9.54%, COc1ccccc1-n1c(=O)n(C)c2c(C(N)=O)nc(-c3cc(OC)c(OC)c(OC)c3)nc21 -2.79%, Cc1ccc(C)c(Cn2c(=O)n(CCCC(=O)NCc3ccc4c(c3)OCO4)c(=O)c3sccc32)c1 -22%, COc1ccc(OC)c(NC(=O)COCc2cc(-c3ccc(F)cc3)on2)c1 -15.7%, CCC1CN(C(=O)Nc2cc(Cl)ccc2C(=O)OC)c2ccccc2S1 (configuration not stated) -17.7%, Cc1ccc(N2C(=O)N(Cc3cccc(Cl)c3)c3ccccc3S2(=O)=O)cc1 -5.99%, CN(C(=O)c1nn(C)c2c1CS(=O)(=O)c1ccccc1-2)c1cccc(Cl)c1 -12.6%, CCCSc1ncc(Cl)c(C(=O)N2CCN(c3ccc(OC)cc3)CC2)n1 -21.3%, CC(C)Oc1ccc(C(=O)N2CCCCC2CCN2CCCCC2)cc1 (configuration not stated) -7.78%, CCOC(=O)c1ccc(NC(=O)c2c(NCc3cccc(OC)c3OC)sc3c2CCC3)cc1 -11.6%, CCC(C)c1ccc(OCC(=O)Nc2ccc(-c3nc4ncccc4o3)cc2)cc1 (configuration not stated) -5.06%, CCOC(=O)c1sc(N2C(=O)c3oc4ccc(F)cc4c(=O)c3C2c2ccc(O)cc2)nc1C (configuration not stated) 4.86%, CCCOc1ccc(CNC(=O)c2cc3ccccn3n2)cc1 14.9%, CCOc1ccccc1NC(=O)CCNS(=O)(=O)c1ccc2c(c1)CCN2C(=O)C1CC1 0.802%, CCCCS(=O)CC(O)CSc1nc(-c2ccc(OC)cc2)cc(-c2ccccc2)c1C#N (configuration not stated) -27.2%, Cc1ccc(/C=C/c2onc(C)c2S(=O)(=O)N2CCC(C(=O)NCc3ccc(N(C)C)cc3)CC2)cc1 -12.9%, COc1ccc(NC(=O)CN(c2ccc(C)cc2)S(=O)(=O)c2cccs2)cc1OC 0.268%, CCCCN(C)C(=O)Cn1ncc2c([nH]c3ccc(C)cc32)c1=O -4.44%, Cn1ncc2c(N3CCN(c4ccccc4Cl)CC3)ncnc21 32.9%, Cc1ccc(OCCCC(=O)Nc2sc3c(c2C(N)=O)CCCC3)cc1 44.5%, CCC(Sc1nnc(-c2ccc(OC)cc2)c(-c2ccc(OC)cc2)n1)C(=O)Nc1cccc(OC)c1 (configuration not stated) -18.7%, Fc1ccccc1N1CCN(c2c3c(nc4nncn24)CCC3)CC1 -3.24%, Cc1cc(C)cc(NC(=O)c2cccc(N3CCCS3(=O)=O)c2)c1 27.3%, COc1ccccc1NC(=O)c1sc2nc(-c3cc4ccccc4oc3=O)[nH]c(=O)c2c1C -4.57%, O=C(CSc1nnc(-c2ccccc2F)o1)N1CCc2ccccc21 -0.154%, COc1ccc(C(=O)N/C(=C\c2cn(S(=O)(=O)N(C)C)c3ccccc23)C(=O)NCCCn2ccnc2)cc1 2.1%, Cc1cccc(C(=O)Nc2nnc(SCc3cc(=O)n4cccc(C)c4n3)s2)c1 -4%, O=C(Cc1ccc(Cl)cc1)NCC(c1cccs1)S(=O)(=O)c1ccc(Cl)cc1 (configuration not stated) -3.19%, C#Cc1cccc(Nc2ncnc3cc(OCCOC)c(OCCOC)cc23)c1 -68.2%, Cc1cccc(NC(=O)c2c(NC(=O)c3ccco3)sc3c2CCC(C(C)(C)C)C3)c1 (configuration not stated) 15.6%, Cc1ccccc1C(=O)Nc1ccc(C(=O)OCc2cc(=O)n3nc(C4CC4)sc3n2)cc1 -8.38%, CC(CNC(=O)CN1C(=O)COc2ccc(S(=O)(=O)N3CCCCC3)cc21)c1ccccc1 (configuration not stated) -16.2%, COc1ccc2c(c1)c1c(c(=O)n(Cc3ccccc3)c(=O)n1Cc1ccc(C)cc1)n2C -6.15%, Cc1onc(-c2ccccc2Cl)c1C(=O)N[C@@H]1C(=O)N2[C@@H]1SC(C)(C)[C@@H]2C(=O)O -2.7%, Cc1ccc(-n2ncc(C(=O)NCCCN3CCc4ccccc4C3)c2C2CCN(C(=O)OC(C)(C)C)CC2)cc1C -28.2%
